In the supplement of paper PMC4967469 one finds AUC and IC50 data, which are given here for eleven cell lines.

A lower IC50 marks a more sensitive line; fits outside the tested doses are given as limits. AUC is the area under the same curve over the 256-fold range up to the top dose, as a fraction; values near 1 show little effect. For part of these data: Where the top dose is marked as inferred, it was calculated from the reported fits. For part of these data: Where an entry number is given, a second screen of the drug exists; the two often differ.

As usually defined, the IC50 is the concentration that inhibits the measured activity by half.

Assay in all cases: Viability of human cancer cell lines after 72 h of drug (GDSC screen)
Compound in one assay: Oc1cccc(-c2nc(N3CCOCC3)c3oc4ncccc4c3n2)c1 [PI-103]
As to conditions: top dose 10.24 µM. The method, then:
(§1)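 Human cancer cell lines in 384-well plates, medium with 10% serum, drug for 72 h over a 256-fold dose range (nine 2-fold or five 4-fold steps up to the top dose). Adherent lines were fixed and stained with the nucleic acid dye Syto60, suspension lines read with resazurin; signal relative to control wells, capped at 0 and 100%. One two-parameter sigmoid per drug and line, fitted in a mixed model over all curves with the slope shared within a line.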

Compound in the next assay: COc1cc2c(NC3CCN(C(C)C)CC3)nc(C3CCCCC3)nc2cc1OCCCN1CCCC1 [UNC0638]
The method, then: as §1

Compound in the next assay: Cc1cccc(-c2[nH]c(C(C)(C)C)nc2-c2ccc3c(c2)OCO3)n1 [SB-505124]
To be noted: top dose 10 µM; top dose inferred. The protocol: as §1

Compound in the next assay: CC1=C(/C=C/C(C)=C/C=C/C(C)=C/C(=O)O)C(C)(C)CCC1 [Tretinoin]
To be noted: top dose 10 µM; top dose inferred. The method, then: as §1

Compound in another assay: CCn1c(-c2nonc2N)nc2c(C#CC(C)(C)O)ncc(OC[C@H]3CCCNC3)c21 [GSK690693]
To be noted: top dose 10.24 µM; top dose inferred. The method, then:
as §1

The mark [1] stands for this setting: top dose 20 µM, screen: GDSC drug entry 1236, top dose inferred.
Setting [2] is: top dose 40 µM, screen: GDSC drug entry 245.

In the case of A2058 (melanoma, adherent), the AUC with PI-103 turned out to be 0.702; with UNC0638 (setting [1]) it was 0.843; with UNC0638 (setting [2]) it was 0.889; in the assay with SB-505124, 0.971; in the assay with Tretinoin, 0.93; with GSK690693, 0.967. Moreover, the IC50 is 2.2 µM with PI-103; 11.9 µM with UNC0638 (setting [1]); 37.1 µM in the assay with UNC0638 (setting [2]); above 10 µM with SB-505124; above 10 µM in the assay with Tretinoin; above 10.2 µM in the assay with GSK690693.
In the case of ABC-1 (lung adenocarcinoma, adherent), the AUC with PI-103 is 0.47; with UNC0638 (setting [1]), 0.98; in the assay with UNC0638 (setting [2]), 0.981; with SB-505124, 0.966; in the assay with Tretinoin it was 0.983; in the assay with GSK690693, 0.821. For the same cell line, the half-maximal inhibitory concentration (IC50) was 0.52 µM with PI-103; above 20 µM with UNC0638 (setting [1]); above 40 µM with UNC0638 (setting [2]); above 10 µM in the assay with SB-505124; above 10 µM in the assay with Tretinoin; 7.57 µM with GSK690693.
Consider ACHN (kidney, adherent), for which the AUC in the assay with PI-103 was found to be 0.631; with UNC0638 (setting [1]), 0.876; in the assay with UNC0638 (setting [2]), 0.86; with SB-505124, 0.98; with Tretinoin, 0.932; with GSK690693, 0.959. Also, the IC50 is 1.55 µM with PI-103; above 20 µM with UNC0638 (setting [1]); above 40 µM in the assay with UNC0638 (setting [2]); above 10 µM with SB-505124; above 10 µM with Tretinoin; above 10.2 µM with GSK690693.
As to AN3-CA (endometrium, adherent), the AUC was 0.336 with PI-103; 0.983 with UNC0638 (setting [1]); 0.98 in the assay with UNC0638 (setting [2]); 0.964 with SB-505124; 0.972 in the assay with Tretinoin; 0.891 in the assay with GSK690693. Also, the IC50 with PI-103 is 0.213 µM; with UNC0638 (setting [1]), above 20 µM; with UNC0638 (setting [2]), above 40 µM; with SB-505124, above 10 µM; in the assay with Tretinoin, above 10 µM; in the assay with GSK690693 it was above 10.2 µM.
On to CAKI-1 (kidney, adherent), for which the AUC with PI-103 worked out at 0.691; with UNC0638 (setting [1]) it was 0.863; with UNC0638 (setting [2]), 0.837; in the assay with SB-505124, 0.973; in the assay with Tretinoin it was 0.852; with GSK690693, 0.953. The IC50 with PI-103 is 2.89 µM; in the assay with UNC0638 (setting [1]) it was above 20 µM; with UNC0638 (setting [2]), above 40 µM; with SB-505124 it was above 10 µM; in the assay with Tretinoin it was above 10 µM; with GSK690693, above 10.2 µM.
CFPAC-1 (pancreas, adherent): the AUC with SB-505124 is 0.982; with Tretinoin, 0.931; in the assay with GSK690693, 0.976. For the same cell line, the IC50 with SB-505124 was above 10 µM; with Tretinoin it was above 10 µM; with GSK690693, above 10.2 µM.
As for “DMS-53 (small cell lung carcinoma, adherent)”, the AUC with PI-103 came to 0.982; in the assay with UNC0638 (setting [1]), 0.868; in the assay with UNC0638 (setting [2]), 0.987; in the assay with SB-505124, 0.951; with Tretinoin, 0.988; in the assay with GSK690693, 0.988. Besides, the IC50 is above 10.2 µM with PI-103; above 20 µM in the assay with UNC0638 (setting [1]); above 40 µM with UNC0638 (setting [2]); above 10 µM with SB-505124; above 10 µM with Tretinoin; above 10.2 µM in the assay with GSK690693.
Regarding Daoy (medulloblastoma, adherent), the AUC with PI-103 was 0.441; with UNC0638 (setting [1]), 0.815; with UNC0638 (setting [2]), 0.719; with SB-505124, 0.98; with Tretinoin, 0.933; in the assay with GSK690693 it was 0.909. Further, the IC50 with PI-103 was 0.448 µM; with UNC0638 (setting [1]) it was 9.69 µM; with UNC0638 (setting [2]) it was 9.72 µM; with SB-505124 it was above 10 µM; in the assay with Tretinoin, above 10 µM; with GSK690693 it was above 10.2 µM.
On to EFM-19 (breast, adherent), for which the AUC was found to be 0.657 with PI-103; 0.833 in the assay with UNC0638 (setting [1]); 0.783 with UNC0638 (setting [2]); 0.936 with SB-505124; 0.918 with Tretinoin; 0.855 with GSK690693. For the same cell line, the IC50 was 2.19 µM with PI-103; above 20 µM in the assay with UNC0638 (setting [1]); 27.1 µM with UNC0638 (setting [2]); above 10 µM with SB-505124; above 10 µM with Tretinoin; above 10.2 µM with GSK690693.
“EPLC-272H (lung squamous cell carcinoma, adherent)”: the AUC with PI-103 was 0.385; with UNC0638 (setting [1]), 0.783; in the assay with UNC0638 (setting [2]) it was 0.584; with SB-505124, 0.978; with Tretinoin it was 0.983; with GSK690693 it was 0.906. Besides, the IC50 with PI-103 is 0.295 µM; with UNC0638 (setting [1]), 9.57 µM; with UNC0638 (setting [2]), 4.39 µM; with SB-505124, above 10 µM; in the assay with Tretinoin it was above 10 µM; with GSK690693, above 10.2 µM.
As to G-MEL (melanoma, adherent), the AUC with PI-103 was 0.557; with UNC0638 (setting [1]) it was 0.807; with UNC0638 (setting [2]) it was 0.905; with SB-505124, 0.767; in the assay with Tretinoin, 0.861; in the assay with GSK690693 it was 0.983. Besides, the concentration for half-maximal inhibition (IC50) with PI-103 is 0.915 µM; with UNC0638 (setting [1]), 10.2 µM; with UNC0638 (setting [2]) it was above 40 µM; with SB-505124 it was 3.68 µM; with Tretinoin it was 8.27 µM; with GSK690693, above 10.2 µM.
